Reference: the supplement of paper PMC8728848
This is one part of the list.

Experiments:
Assay in all cases: glycan array binding signal (z-score within array); higher = stronger binding
Settings in all cases: glycan notation: IUPAC condensed, linker removed
[1] = target: Neu5Ac(a2-3)[Neu5Ac(a2-6)]GalNAc
Outline: (§1)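 The Consortium for Functional Glycomics database supplied 3228 glycan arrays, of which those lacking an available protein sequence were dropped. The binding signal, a within-array Z-score, was averaged across arrays of the same protein sequence and across linkers. Negative scores can be read as non-binding.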

Neu5Ac(a2-6)Gal = target: Neu5Ac(a2-6)Gal
Outline: as §1

Neu5Ac(a2-6)Gal(b1-4)Glc = target: Neu5Ac(a2-6)Gal(b1-4)Glc
Outline: as §1

[2] = target: Neu5Ac(a2-6)Gal(b1-4)GlcNAc
Outline: as §1

[3] = target: Neu5Ac(a2-6)Gal(b1-4)GlcNAc(b1-2)Man(a1-3)Man(b1-4)GlcNAc(b1-4)GlcNAc
Outline: as §1

[4] = target: Neu5Ac(a2-6)Gal(b1-4)GlcNAc(b1-2)Man(a1-3)[Gal(b1-4)GlcNAc(b1-2)Man(a1-6)]Man(b1-4)GlcNAc(b1-4)GlcNAc
Outline: as §1

[5] = target: Neu5Ac(a2-6)Gal(b1-4)GlcNAc(b1-2)Man(a1-3)[GlcNAc(b1-2)Man(a1-6)]Man(b1-4)GlcNAc(b1-4)GlcNAc
Outline: as §1

[6] = target: Neu5Ac(a2-6)Gal(b1-4)GlcNAc(b1-2)Man(a1-3)[GlcNAc(b1-2)Man(b1-4)GlcNAc(b1-2)Man(a1-6)]Man(b1-4)GlcNAc(b1-4)GlcNAc
Outline: as §1

[7] = target: Neu5Ac(a2-6)Gal(b1-4)GlcNAc(b1-2)Man(a1-3)[Man(a1-6)]Man(b1-4)GlcNAc(b1-4)GlcNAc
Outline: as §1

[8] = target: Neu5Ac(a2-6)Gal(b1-4)GlcNAc(b1-2)Man(a1-3)[Neu5Ac(a2-6)Gal(b1-4)GlcNAc(b1-2)Man(a1-6)]Man(b1-4)GlcNAc(b1-4)GlcNAc
Outline: as §1

[9] = target: Neu5Ac(a2-6)Gal(b1-4)GlcNAc(b1-2)Man(a1-6)Man(b1-4)GlcNAc(b1-4)GlcNAc
Outline: as §1

[10] = target: Neu5Ac(a2-6)Gal(b1-4)GlcNAc(b1-2)Man(a1-6)[Gal(b1-4)GlcNAc(b1-2)Man(a1-3)]Man(b1-4)GlcNAc(b1-4)GlcNAc
Outline: as §1

[11] = target: Neu5Ac(a2-6)Gal(b1-4)GlcNAc(b1-2)Man(a1-6)[GlcNAc(b1-2)Man(a1-3)]Man(b1-4)GlcNAc(b1-4)GlcNAc
Outline: as §1

[12] = target: Neu5Ac(a2-6)Gal(b1-4)GlcNAc(b1-2)Man(a1-6)[Man(a1-3)]Man(b1-4)GlcNAc(b1-4)GlcNAc
Outline: as §1

[13] = target: Neu5Ac(a2-6)Gal(b1-4)GlcNAc(b1-3)Gal(b1-3)GlcNAc
Outline: as §1

[14] = target: Neu5Ac(a2-6)Gal(b1-4)GlcNAc(b1-3)Gal(b1-4)GlcNAc
Outline: as §1

[15] = target: Neu5Ac(a2-6)Gal(b1-4)GlcNAc(b1-3)Gal(b1-4)GlcNAc(b1-3)Gal(b1-4)GlcNAc
Outline: as §1

[16] = target: Neu5Ac(a2-6)Gal(b1-4)GlcNAc(b1-3)Gal(b1-4)[Fuc(a1-3)]GlcNAc(b1-3)Gal(b1-4)[Fuc(a1-3)]GlcNAc
Outline: as §1

[17] = target: Neu5Ac(a2-6)Gal(b1-4)GlcNAc(b1-3)GalNAc
Outline: as §1

[18] = target: Neu5Ac(a2-6)Gal(b1-4)GlcNAc6S
Outline: as §1

Neu5Ac(a2-6)GalNAc = target: Neu5Ac(a2-6)GalNAc
Outline: as §1

[19] = target: Neu5Ac(a2-6)GalNAc(b1-4)GlcNAc
Outline: as §1

[20] = target: Neu5Ac(a2-6)GlcNAc(b1-4)GlcNAc
Outline: as §1

[21] = target: Neu5Ac(a2-6)GlcNAc(b1-4)GlcNAc(b1-4)GlcNAc
Outline: as §1

Neu5Ac(a2-8)Neu5Ac = target: Neu5Ac(a2-8)Neu5Ac
Outline: as §1

[22] = target: Neu5Ac(a2-8)Neu5Ac(a2-3)Gal(b1-4)Glc
Outline: as §1

[23] = target: Neu5Ac(a2-8)Neu5Ac(a2-3)[GalNAc(b1-4)]Gal(b1-4)Glc
Outline: as §1

[24] = target: Neu5Ac(a2-8)Neu5Ac(a2-8)Neu5Ac
Outline: as §1

[25] = target: Neu5Ac(a2-8)Neu5Ac(a2-8)Neu5Ac(a2-3)Gal(b1-4)Glc
Outline: as §1

[26] = target: Neu5Ac(a2-8)Neu5Ac(a2-8)Neu5Ac(a2-3)[GalNAc(b1-4)]Gal(b1-4)Glc
Outline: as §1

[27] = target: Neu5Ac(a2-8)Neu5Ac(a2-8)Neu5Ac(a2-8)Neu5Ac(a2-3)[GalNAc(b1-4)]Gal(b1-4)Glc
Outline: as §1

[28] = target: Neu5Ac(b2-6)Gal(b1-4)GlcNAc
Outline: as §1

Neu5Ac(b2-6)GalNAc = target: Neu5Ac(b2-6)GalNAc
Outline: as §1

[29] = target: Neu5Ac9Ac(a2-3)Gal(b1-3)GlcNAc
Outline: as §1

[30] = target: Neu5Ac9Ac(a2-3)Gal(b1-4)GlcNAc
Outline: as §1

[31] = target: Neu5Ac9Ac(a2-6)Gal(b1-4)GlcNAc
Outline: as §1

[32] = target: Neu5Gc(a2-3)Gal(b1-3)GlcNAc
Outline: as §1

[33] = target: Neu5Gc(a2-3)Gal(b1-3)[Fuc(a1-4)]GlcNAc
Outline: as §1

Neu5Gc(a2-3)Gal(b1-4)Glc = target: Neu5Gc(a2-3)Gal(b1-4)Glc
Outline: as §1

[34] = target: Neu5Gc(a2-3)Gal(b1-4)GlcNAc
Outline: as §1

[35] = target: Neu5Gc(a2-3)Gal(b1-4)[Fuc(a1-3)]GlcNAc
Outline: as §1

[36] = target: Neu5Gc(a2-6)Gal(b1-4)GlcNAc
Outline: as §1

Neu5Gc(a2-6)GalNAc = target: Neu5Gc(a2-6)GalNAc
Outline: as §1

[37] = target: Neu5Gc(b2-6)Gal(b1-4)GlcNAc
Outline: as §1

B1: DGL (Dioclea grandiflora), P08902 (protein)
chain: ADTIVAVELDSYPNTDIGDPNYPHIGIDIKSIRSKSTARWNMQTGKVGTVHISYNSVAKRLSAVVSYSGSSSTTVSYDVDLNNVLPEWVRVGLSATTGLYKETNTILSWSFTSKLKTNSIADENSLHFSFHKFSQNPKDLILQGDAFTDSDGNLELTKVSSSGDPQGNSVGRALFYAPVHIWESSAVVASFDATFTFLIKSPDREPADGITFFIANTDTSIPSGSGGRLLGLFPDAN
- glycan array binding signal (z-score) [1]: -0.166
- glycan array binding signal (z-score) (Neu5Ac(a2-6)Gal): -0.171
- glycan array binding signal (z-score) (Neu5Ac(a2-6)Gal(b1-4)Glc): -0.175
- glycan array binding signal (z-score) [2]: -0.176
- glycan array binding signal (z-score) [3]: -0.179
- glycan array binding signal (z-score) [4]: -0.178
- glycan array binding signal (z-score) [5]: 0.053
- glycan array binding signal (z-score) [6]: -0.172
- glycan array binding signal (z-score) [7]: -0.131
- glycan array binding signal (z-score) [8]: -0.173
- glycan array binding signal (z-score) [9]: -0.172
- glycan array binding signal (z-score) [10]: -0.182
- glycan array binding signal (z-score) [11]: -0.165
- glycan array binding signal (z-score) [12]: -0.159
- glycan array binding signal (z-score) [13]: -0.173
- glycan array binding signal (z-score) [14]: -0.178
- glycan array binding signal (z-score) [15]: -0.178
- glycan array binding signal (z-score) [16]: -0.171
- glycan array binding signal (z-score) [17]: -0.167
- glycan array binding signal (z-score) [18]: -0.179
- glycan array binding signal (z-score) (Neu5Ac(a2-6)GalNAc): -0.174
- glycan array binding signal (z-score) [19]: -0.185
- glycan array binding signal (z-score) [20]: -0.172
- glycan array binding signal (z-score) [21]: -0.177
- glycan array binding signal (z-score) (Neu5Ac(a2-8)Neu5Ac): -0.182
- glycan array binding signal (z-score) [22]: -0.178
- glycan array binding signal (z-score) [23]: -0.178
- glycan array binding signal (z-score) [24]: -0.175
- glycan array binding signal (z-score) [25]: -0.176
- glycan array binding signal (z-score) [26]: -0.177
- glycan array binding signal (z-score) [27]: -0.176
- glycan array binding signal (z-score) [28]: -0.177
- glycan array binding signal (z-score) (Neu5Ac(b2-6)GalNAc): -0.171
- glycan array binding signal (z-score) [29]: -0.172
- glycan array binding signal (z-score) [30]: -0.171
- glycan array binding signal (z-score) [31]: -0.171
- glycan array binding signal (z-score) [32]: -0.177
- glycan array binding signal (z-score) [33]: -0.179
- glycan array binding signal (z-score) (Neu5Gc(a2-3)Gal(b1-4)Glc): -0.17
- glycan array binding signal (z-score) [34]: -0.178
- glycan array binding signal (z-score) [35]: -0.181
- glycan array binding signal (z-score) [36]: -0.174
- glycan array binding signal (z-score) (Neu5Gc(a2-6)GalNAc): -0.17
- glycan array binding signal (z-score) [37]: -0.172
